According to the supplement of paper PMC11417369:
± gives the standard deviation of the averaged measurements. The list shows a part of the results.

What follows are sequences tested on PfAP2-LT AP2 domain (GST-tagged) (assay: gcPBM binding intensity (ln(normalized median fluorescence intensity)); higher = stronger DNA binding).
Summary of the method: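 DNA-binding domains from P. falciparum, fused to GST and produced in E. coli, were put on an Agilent 4 × 180k double-stranded probe array for 1 h in 1× PBS holding 1% milk, 0.2 mg/ml BSA, 0.5% salmon testes DNA and 0.03% Triton X-100. Probes were primer-extended, 36 bp long and drawn from intergenic genomic regions, with negative controls included. After Alexa488 anti-GST antibody detection and a 488 nm scan, binding intensity was set as the highest Masliner-normalised natural-log median intensity across replicate spots of either probe orientation.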

In order of rising “gcPBM binding intensity (ln)” value:
1. TTTCTTTAGTAGAATGTAAAAAATATAATCTTCTTA [TGCATGCA_negctrl_site298]  7.92 ± 0.45
2. TAAATTTTTTTTTTTTGTACACAAAAATATAATATT [XGTACX_site8151]  8.37 ± 0.48
3. TATTTTGAAATGGAAAGGATATAGAACTTAAACAAA [CACACA_negctrl_site1530]  8.39 ± 0.47
4. TTAATTTTGGTAAATGCATGTAATTAAAAATAAAAA [TGCATGCA_site234]  8.43 ± 0.41
5. ATTATGAATTTTAATTGTACATTATTATAGAATGTA [XGTACX_site619]  8.51 ± 0.4
6. TTATAAATTCAATGTACTACACAAAATGAATTTAAT [XGTACX_site6683]  8.53 ± 0.35
7. TTCATAAAAAATGTAGTGCATTGAATAAAATTACAT [GTGCAC_site9393]  8.6 ± 0.44
8. AAATTTTTTATTAGTAGTACGCATAAATATATGTAT [XGTACX_site1934]  8.61 ± 0.32
9. AATTACTTAAATTATTGTACCCTAATGTTAATTTCA [XGTACX_site825]  8.64 ± 0.45
10. ATATATATATCAAAATGTACAAAAATAGAATTTAAA [XGTACX_site8292]  8.67 ± 0.41
11. GCATATGATGAGCATATAATCATAAGAAAAAAAAAA [CACACA_negctrl_site701]  8.67 ± 0.52
12. ATATTGAAATTAAAAAAATATATGAACAAATGATGA [CACACA_negctrl_site602]  8.67 ± 0.47
13. AAAATTATTAAATATGTACACACGTACATTTTATAA [CACACA_site8750]  8.67 ± 0.38
14. ATTTAATTTTTTTTTAAACACACATTTTTTTATTTA [CACACA_site8880]  8.72 ± 0.45
15. TTATGTAGTATAATGAGTACTAAATATAGATATGTT [XGTACX_site6335]  8.73 ± 0.42
16. AAAAATTCTTCCCAAGCATGCGCGCGTAAAATATTT [TGCATGCA_site77]  8.75 ± 0.34
17. AATATATATTAATAAAGTACAGGAAATATTTTTACC [XGTACX_site7052]  8.78 ± 0.29
18. CAGTAGTTTTTATGGGTGCAAAACATATATATAACA  8.79 ± 0.54
19. AATAAATAGTAGTAGGTGCTACTATATTATATATAT [GTGCAC_site9452]  8.79 ± 0.47
20. TACTTCTTTTTTATTTATTTTACTTTTTATTCTGTA [CACACA_negctrl_site772]  8.8 ± 0.64
21. TATGTAATAATAAACGGTACACTATATTGTATGAAA [XGTACX_site4648]  8.81 ± 0.36
22. TTCAATTATATTCTTTGTACGAATCTTCTATAAATT [XGTACX_site4346]  8.82 ± 0.43
23. AAAATTAAAATATCACGTACGAAGAAAAAATTAAGA [XGTACX_site6437]  8.83 ± 0.42
24. ATTTTCTATATCTTTCAACACACAAATTTTTTTTTC [CACACA_site7918]  8.85 ± 0.45
25. AATAATTCTTAAAGGTGTACAATATGTATATAAGAA [XGTACX_site595]  8.87 ± 0.6
26. AAATAAATAATAAATAAATAAATAAAATACCAAATA [GTGCAC_negctrl_site620]  8.87 ± 0.53
27. TACTAAAAAATATAAACACACATATATTTTACATAT [CACACA_site2042]  8.88 ± 0.57
28. ACATTTTGTAAAGAATGTACATATATATATATATTC [XGTACX_site8004]  8.88 ± 0.36
29. GCTTATGCTCAATATTGTACTTTTTTTATTTATTCA [XGTACX_site8863]  8.88 ± 0.51
30. CCTTTCCTAGCACATGCACACAAAAAAAAAAAAAAA [CACACA_site8396]  8.9 ± 0.44
31. TTTAATTTGATAGACACATGCACACGTGCAATACTT [TGCATGCA_site777]  8.91 ± 0.25
32. AAACGGCTATTAAAATGTACATGTAAATATATTAAA [XGTACX_site918]  8.91 ± 0.54
33. TTTTATATCTACCTTTGTACATATTTATTTTTTTTA [XGTACX_site7872]  8.95 ± 0.5
34. ATATATATATATAAATGTACAGATATATTTTTTATT [XGTACX_site5445]  9.02 ± 0.27
35. CATGAATATTTATACATGCACACTAAAATAAAGAAT [CACACA_site2412]  9.03 ± 0.39
36. AAAAAAAAAAGAAAAGGTACACAGAATATATATATA [XGTACX_site6914]  9.04 ± 0.34
37. ATACATTCAAAATATACACACATATATCTATAATAT [CACACA_site6576]  9.04 ± 0.37
38. TATAAATATGTGTATACACACCTGATAAAGGTATAT [CACACA_site7283]  9.1 ± 0.45
39. TATATATATATAGATGCATGCAATTACATATAACAA [TGCATGCA_site118]  9.13 ± 0.45
40. TTTATAAAAAGCATAACACACACATGTCAATATATA [CACACA_site8286]  9.15 ± 0.33
41. GAAAATATTACATACACGCACACATTAATATATTTA [CACACA_site2604]  9.21 ± 0.4
42. AATATTATAAATGATACACACTTAAAATACAGACAC [CACACA_site8868]  9.21 ± 0.42
43. GAGGGTATAATAAAAGCACACACAAAGATATAAATA [CACACA_site9087]  9.32 ± 0.45
44. ATATAAGTACGGCATGCATGCACATTTTTTTATTCC [TGCATGCA_site101]  9.34 ± 0.29
45. AGTTATTTTTATATTTCACACACATATACTTTTACA [CACACA_site9357]  9.35 ± 0.36
46. ATCTTTTTACTTAATACACACACACCCAAAAAAAAA [CACACA_site8221]  9.39 ± 0.17
47. AATACATATGGGTGTACACATTATATATATATATAT [CACACA_site4601]  9.53 ± 0.26
48. AACATACGACAATACGCACACATATAAGTACATATT [CACACA_site8584]  9.53 ± 0.4
49. TACATCAAACAAGTATGTACATATATATATATATAT [XGTACX_site7415]  9.67 ± 0.11
50. AAAAAAATAAGACACACACACAAAAAAATAAAAATA [CACACA_site6357]  9.73 ± 0.36
51. AAAAAATGCGACATGTGTACACATATATATATATAT [XGTACX_site1679]  9.81 ± 0.3
52. TATATATATATATACACACACACACCCCAAAGCGTA [CACACA_site64]  10 ± 0.31
53. TACAGACATAGACACACACACACGCATAAAAAAAAA [CACACA_site6820]  10 ± 0.51
54. TACACCCACCAACACACACACACACTAATAAAAAAA [CACACA_site8060]  10.1 ± 0.44
55. TTGTGTACATATTAAGTGCATATATATATATATATA  10.1 ± 0.42
56. ATATATATATATATATGTACATATACACATGTGTGC [XGTACX_site168]  10.14 ± 0.099
57. AAAATACATAGACACACACACACACGGATATAAATA [CACACA_site7643]  10.2 ± 0.2
